Results taken from PubChem BioAssay AID686978 (National Center for Advancing Translational Sciences (NCATS), 2013).
In all, about 420,000 compounds went through this assay and about 64,000 (15%) were called active. The inconclusive results got no clear call from the source; some entries with a clear call stand among them for comparison. The call rests on the fitted dose curve; in most records, active means well fitted inhibition curve with a large enough effect; inconclusive means small, poorly fitted or top-dose-only effect; inactive means flat fitted curve, though single readings scatter. No potency is given beside an inconclusive call; the fits are too rough.

Experiment: qHTS for Inhibitors of human tyrosyl-DNA phosphodiesterase 1 (TDP1): qHTS in cells in absence of CPT; further: nearly all actives have a fitted effect of over 55% in size
Conditions: DT40 Tdp1-/- hTDP1 cells, no CPT, ATP luminescence, 48 h; activity change, negative = growth inhibition: at 46.2 µM (top of the series) unless noted
Method in brief: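 Stably hTDP1-transfected Tdp1-null chicken DT40 cells were treated with library compounds minus camptothecin and grown for at least 48 hr at 37 °C, after which cellular ATP was quantified by luminescence.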
On the % scale 0 is the no-effect control and ±100 the full control effect; potency means the concentration at half of the fitted maximal effect; tags describe the fitted curve by direction and shape.

Compound	Potency	activity change, negative = growth inhibition
COc1cccc(C(C)NC(=O)Nc2cccc(C(F)(F)F)c2)c1 (configuration not stated)	active: 10.3 µM	
COc1cccc(/C=C/C(=O)OCC(=O)Nc2ccc(N3CCOCC3)cc2)c1OC		inactive: 8.17%
N#Cc1ccccc1OCc1cn(CC(=O)c2ccc(O)cc2)nn1		inactive: -5.04%
COc1ccccc1-n1c(SCC(=O)Nc2cc(C)on2)nc2c([nH]c3ccccc32)c1=O	inconclusive [inhibitor, single point]	
O=C(O)c1cccc(-n2c(/C=C/c3ccccc3)nc3ccccc3c2=O)c1	inconclusive [inhibitor, single point]	
Cc1c(O)c(=O)n(-c2ccccc2)n1C		inactive: 10.9%
Cc1ccccc1Cn1nnc2c(=O)[nH]c(C3CCN(C(=O)c4ccc(F)cc4)CC3)nc21	inconclusive [inhibitor, partial curve]	
O=C(NCCC(=O)N1CCN(Cc2c(F)cccc2Cl)CC1)c1ccc(Cl)cc1	inconclusive [inhibitor, single point]	
O=C(NCCc1ccc(F)cc1)c1ccc(S(=O)(=O)N2CCCCC2)cc1	inconclusive [inhibitor, single point]	
Cc1ccc(S(=O)(=O)Nc2cc(Cl)c(O)cc2C)cc1	inconclusive [inhibitor, partial curve]	
COc1ccc([C@@H](C)NC(=O)c2ccc3oc(C(C)C)nc3c2)cc1	active: 16.4 µM	
COc1ccc(S(=O)(=O)NNC(=O)c2cc3cc4ccccc4nc3s2)cc1		inactive: -3.59%
CN(C)CCO/N=C(\c1ccc(Br)cc1)c1cccnc1	inconclusive [inhibitor, single point]	
CC(=O)Nc1ccc(Sc2ncccc2C(=O)Nc2cc(Cl)cc(Cl)c2)cn1	inconclusive [inhibitor, single point]	
COC(=O)NC(Nc1sc2c(c1C(N)=O)CCCC2)(C(=O)OC)C(F)(F)F (configuration not stated)		inactive: -16.4%
CC(=O)c1ccc(Nc2cc(C)nc3c(C)cccc23)cc1	active: 1.3 µM	
COc1cc2sc(-c3ccc(S(C)(=O)=O)cc3)c(C#CCO)c2cc1OC	inconclusive [inhibitor, single point]	
Cc1cc(F)ccc1S(=O)(=O)NCC(c1cccnc1)N1CCc2ccccc21 (configuration not stated)	active: 16.4 µM	
CCOc1ccccc1NC(=O)CSC1=NN2CCCC(=O)N=C2S1	inconclusive [inhibitor, single point]	
O=C(CN(CC1CCCO1)C(=O)CNS(=O)(=O)c1ccc(F)cc1)NCc1ccccc1 (configuration not stated)		inactive: 1.45%
O=C(Nc1ccc(S(=O)(=O)NC2=NCCCCC2)cc1)c1ccc2ccccc2n1	inconclusive [inhibitor, single point]	
Cn1c(=O)c(-c2ccc(F)cc2)nc2cnc(N3CCOCC3)nc21		inactive: 3.87%
CCn1nnnc1SCC(=O)Nc1cccc(NC(C)=O)c1		inactive: -17.2%
CCN(CC)C(=S)NC(=O)c1cccnc1	inconclusive [inhibitor, single point]	
CCCNC(=S)N1CCC(NC(=O)Nc2ccc(C)cc2)CC1		inactive: -9.06%
COc1ccc(NC(=O)C(CC(C)C)NS(=O)(=O)c2ccc3c(c2)CCN3C(C)=O)cc1OC (configuration not stated)		inactive: -10.4%

Compound	Potency	activity change, negative = growth inhibition
COc1ccc(CCn2c(C(C)C)nc3oc4ccccc4c(=O)c3c2=O)cc1	active: 29.1 µM	
CCOc1ccc(CN2CCN(C(=O)c3ccco3)CC2)cc1	inconclusive [inhibitor, single point]	
NC(=O)CC(NC(=O)c1ccc(Br)cc1)c1ccc(N2CCN(c3ccccn3)CC2)c([N+](=O)[O-])c1 (configuration not stated)	active: 20.6 µM	
O=C(NN=Cc1c(O)ccc2ccccc12)c1ccncc1	active: 3.66 µM	
COc1cccc(CNS(=O)(=O)c2ccc3c(c2)C(C)(C)C(=O)N3C)c1		inactive: 0.658%
CCCN1C(=O)C(NC(C)=O)c2cc(OC)ccc21 (configuration not stated)	active: 18.4 µM	
CCn1c(SCC(=O)c2ccc(NC(C)=O)c(OC)c2)nnc1-c1ccc(NS(C)(=O)=O)cc1		inactive: -3.83%
COc1ccccc1N1CCN(C2CCCN(C(=O)c3ccoc3C)C2)CC1 (configuration not stated)		inactive: 6.5%
COC(=O)c1c(-c2ccccc2)csc1NC(=O)c1c(-c2ccccc2)noc1C		inconclusive: -34.7% [inhibitor]
Cc1cccc(NC(=O)CSc2nc3[nH]ncc3c(=O)[nH]2)c1	inconclusive [inhibitor, single point]	
Cc1[nH]c2c(C)cccc2c(=O)c1Br	inconclusive [inhibitor, partial curve, poor fit]	
CN=Cc1sc2ccccc2c1O		inactive: -14.9%
CCCN1Cc2cccc(C(=O)Nc3ccc(OC)c(OC)c3)c2C1=O		inactive: -3.51%
O=C(CSc1nc(-c2ccccc2)c(-c2ccccc2)o1)N1CCCCC1	inconclusive [inhibitor, single point]	
CCC(C)NC(=O)CCCN1C(=O)CCn2nc(-c3cccn3C)cc21 (configuration not stated)		inactive: 0.235%
N#C/C(=C/c1ccccc1[N+](=O)[O-])c1nc(C2CC2)cs1		inactive: -119%
Cc1cc(C)n(CCNC(=O)[C@H]2O[C@@H](n3ccc(=O)[nH]c3=O)[C@H](O)[C@@H]2O)n1		inactive: -0.33%
O=C(NCCCN1CCN(c2ccccc2F)CC1)C1CCC(=O)N1C1CCCC1 (configuration not stated)		inactive: -11.8%
O=[N+]([O-])c1ccccc1CNC(Cc1ccccc1)c1ccccc1 (configuration not stated)		inactive: -10.3%
CCNC(=O)[C@H]1O[C@H](n2cnc3c(N)nc(NCCc4ccc(CCC(=O)O)cc4)nc32)[C@@H](O)[C@@H]1O	inconclusive [inhibitor, partial curve, poor fit]	
COc1ccc(Nc2ccc3c(c2)=NC2(CCCCC2)[N+]=3[O-])cc1	active: 2.59 µM	
Cc1ccc(NC(=O)CSc2ccccc2)cc1S(=O)(=O)N1CCCCC1	inconclusive [inhibitor, single point]	
COc1cccc(C(=O)Nc2ccc(S(=O)(=O)NCc3ccco3)cc2)c1	inconclusive [inhibitor, partial curve]	
COc1cc2c(cc1OC)C(COc1ccc(F)cc1)N(C(C)=O)CC2 (configuration not stated)		inactive: 0.464%
CCc1cccc(NC(=O)COC(=O)c2cn(CC)c3nc(C)ccc3c2=O)c1	inconclusive [inhibitor, single point]	
COC(=O)CC1(C(=O)OC)Oc2ccc(Br)cc2C(=O)N1c1cccc(Cl)c1Cl (configuration not stated)	active: 6.51 µM	

Compound	Potency	activity change, negative = growth inhibition
COc1cccc(-c2sc3ccccc3c2-c2ccc(OCCN3CCCC3)cc2)c1	active: 8.2 µM	
CC(Sc1nc2scc(-c3ccccc3)c2c(=O)[nH]1)C(=O)NC(N)=O (configuration not stated)	inconclusive [inhibitor, partial curve]	
COc1cc(C(=O)NCC(c2ccco2)N2CCCC2)ccc1OCc1ccccc1 (configuration not stated)		inactive: -17.8%
CCOC(=O)C1(CCOc2ccccc2)CCN(Cc2ccc(C(=O)OC)cc2)CC1	inconclusive [inhibitor, single point]	
O=C1CCCN1CC(O)CS(=O)(=O)Cc1ccc(Cl)c(Cl)c1 (configuration not stated)		inactive: 4.49%
CC12C(=O)N(c3nccs3)C(=O)C1(C)C1CCC2O1 (configuration not stated)		inactive: -5.59%
CCn1cc(C(=O)NC2CCCCCC2)c(=O)c2cc(S(=O)(=O)N3CCCCC3)ccc21	inconclusive [inhibitor, partial curve]	
Cc1ccc(S(=O)(=O)N(Cc2ccc(C(F)(F)F)cc2)C(=O)N2CCN(C)CC2)cc1		inactive: -12.4%
COc1ccc(OCCN2CCCC2)cc1Nc1nnc(Cl)c(Nc2ccccc2S(C)(=O)=O)n1	inconclusive [inhibitor, single point]	
COc1ncnc2c1ncn2CCCN1CCN(c2ncccn2)CC1		inactive: -29%
Cc1cc(C(=O)N(Cc2cc3cc4c(cc3nc2N2CCOCC2)CCC4)CC2CCCO2)c(=O)[nH]c1C (configuration not stated)		inactive: -4.68%
COc1ccccc1C(O)(c1ccccc1)c1ccccc1OC	inconclusive [inhibitor, single point]	
O=C1c2ccccc2NC(c2ccc(Cl)cc2Cl)N1Cc1ccccc1 (configuration not stated)	inconclusive [inhibitor, single point]	
COc1ccccc1C(=O)Nc1ccccc1OCc1cc(=O)n2c(C)csc2n1	active: 16.4 µM	
O=C(OCCN1CCN(c2ncc(C(F)(F)F)cc2Cl)CC1)c1ccc(Cl)cc1	inconclusive [inhibitor, partial curve, poor fit]	
O=C(CN1CCN(C(=O)c2ccco2)CC1)Nc1ccc2c(c1)OCO2		inactive: 4.43%
CC(C)c1nn2c(=O)cc(COC(=O)c3ccc(NC(=O)COc4ccccc4)cc3)nc2s1		inactive: -29.9%
Cc1ccc(NC(=S)N(CCC(C)C)C(C)c2ccncc2)c(Cl)c1 (configuration not stated)	inconclusive [inhibitor, single point]	
CCN(CC)CCn1c2ccccc2c2n[nH]c(=S)nc21		inactive: -11.5%
Cc1cc(Nc2ccccc2)n(CCOC(=O)COc2ccccc2)n1		inactive: -16.6%
COc1ccccc1-c1oc2ccccc2c(=O)c1O	inconclusive [inhibitor, partial curve, poor fit]	
CCc1ccc(CN(C)C(=O)CCc2nnc(Cc3cccc(C)c3)o2)nc1		inactive: -12.8%
O=C(NCCc1ccccc1)C1CCCN1S(=O)(=O)c1ccc(Cl)cc1 (configuration not stated)	inconclusive [inhibitor, single point]	
C[C@@H]1CN([C@@H](C)CO)C(=O)c2cc(NS(C)(=O)=O)ccc2O[C@@H]1CN(C)S(=O)(=O)c1ccccc1		inactive: -3.4%
O=C(CN1CCC(Cc2ccccc2)CC1)NC(=O)NC1CCCCC1	inconclusive [inhibitor, single point]	
